This experiment deals with NCI-H322M lung. In words: inhibition of tumour cell growth, NCI panel, 48 h.

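Cells were grown in 96-well plates and exposed to each compound for 48 hours at five concentrations; endpoints were interpolated linearly between bracketing concentrations, or set to the highest concentration if not reached. Here, GI50 denotes the concentration required for 50% inhibition of growth. TGI is the concentration that stops growth completely.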 Where only a bound is given, the exact number is not on record here.

As for `N/N=c1\c2ccccc2c2cc3c(cc12)/c(=N/N)c1ccccc13`, the TGI was > 100 µM. `COc1cc2c(cc1Nc1nc(Nc3cccc(F)c3C(N)=O)c3cc[nH]c3n1)N(C(=O)CN1CCN(C(C)C)CC1)CC2`: the GI50 is 3.23 µM and the TGI was 7.94 µM. On the same counts, the results for `CCN(CC)C1CCC(Nc2c(C(C)=O)cnc3ccc(-c4ccc(O)c(Cl)c4)cc23)CC1` (stereo not drawn) are 0.62 µM and 17.3 µM. Regarding `Nc1nc2c(ncn2Cc2ccccc2CO)c(=O)[nH]1`, the TGI was > 100 µM. With `Clc1cc(Cl)cc(N2N=C(c3cccc(Nc4ccncc4)c3)CC2c2ccc3c(c2)OCO3)c1` (stereo not drawn), the GI50 is 1.57 µM and the TGI stood at 2.95 µM. With `Cc1cc(N(CCCl)CCCl)ccc1C=Nc1ccc2ccccc2c1`, the GI50 is > 100 µM and the TGI is > 100 µM. Consider `Clc1ccc(OCc2nnc3n2N=C(c2ccc(Cl)cc2Cl)CS3)cc1`, for which the GI50 was 16.8 µM and the TGI came out at 85.8 µM.

With `COc1ccc(/C=C/C(=O)c2ccc(OC)c(OC)c2)cc1O`, the GI50 is 5.32 µM and the TGI was 18.5 µM.

Turning to `O=C(C/C(=N/O)c1cc(-c2ccccc2)no1)c1ccccc1`, the TGI is > 100 µM. Take `Clc1ccc(-c2c(C3=NCCCN3)nnn2-c2ccccc2)cc1`: the TGI is > 100 µM.

For `COc1ccc(-n2ccnc2-c2cc(OC)c(OC)c(OC)c2)cc1`, the GI50 is 7.62 µM and the TGI is > 100 µM.

As to `O=C1OCC2=C1C(c1ccc(Cl)c(Cl)c1)c1cc3c(cc1N2CCO)CCC3` (stereo not drawn), the GI50 is 0.249 µM and the TGI stood at 8.63 µM. `Cc1ccccc1-n1c2nc(=O)n(C)c(=O)c-2nc2ccccc21` showed a TGI of 52.7 µM. For the molecule `CC(OC(=O)C(CC(=O)OC(C)(C)C)NC(=O)OC(C)(C)C)C(=O)OCc1ccccc1` (stereo not drawn), the TGI is > 100 µM. As for `Cc1cccc(-c2cc(=O)c3c(C)cc(C)nc3[nH]2)c1`, the TGI is > 100 µM. With `Cn1c(=O)c(Oc2ccc(F)cc2F)cc2cnc(NC3CCS(=O)(=O)CC3)nc21`, the GI50 is > 25 µM and the TGI was > 25 µM. As to `CCOC(=O)c1c2c(c(O)c3ccccc3c(O)n(Cc3ccccc3)c1C)C(=O)C=CC2=O`, the TGI is > 100 µM. Consider `CC(=O)Nc1nnc(S(C)(=O)=O)s1`, for which the TGI is > 100 µM. On the same count and under the same terms, the same measure for `COC(=O)C1=C(C)C=C(N2CCOCC2)C(C(=O)OC)C1c1ccccc1` (stereo not drawn): > 10 µM. Turning to `COc1cc(C(=O)N/N=C/c2ccc(N(C)C)cc2)cc(OC)c1OC`, the GI50 is 0.904 µM and the TGI was > 100 µM. For the molecule `CC(C)(C)C1=CC(=C2C(=O)C(=O)c3ccccc3C2=O)C=C(C(C)(C)C)C1=O`, the TGI was > 100 µM. On the same count and under the same terms, as for `CC(=O)NC(Cc1ccsc1)C(=O)O` (stereo not drawn), the figure is > 100 µM. In the case of `O=C(Nc1n[nH]c2nnc(-c3cccnc3)cc12)C1CC1`, the GI50 was > 12.9 µM and the TGI was > 25 µM.

Regarding `COc1cc(C(=O)Nc2cc(OC)c3ccn(C)c3c2)cc2c1C[C@]1(C)CC[C@@H](O)C(C)(C)[C@H]1O2`, the GI50 is 6.91 µM and the TGI was > 100 µM.

Take `O=C(Nc1ccccc1)c1cc(S(=O)(=O)Nc2nc3ccccc3o2)c(SCc2ccccc2)cc1Cl`: the GI50 is 15 µM and the TGI amounted to 29.2 µM. On to `CCOC(=O)C(=O)/C(=C/N1C(=O)CC(=O)NC1=S)C(=O)OCC`, for which the TGI was > 100 µM. Take `COC(=O)[C@H](Cc1ccc(OC(C)(C)C)cc1)N[C@H](C)C(=O)N[C@@H](Cc1ccccc1)C(=O)OCc1ccccc1`: the TGI was > 100 µM.

On to `COC1(O)c2cccc(Cl)c2C(=O)N1C1(C(N)=O)CCCCC1` (stereo not drawn), for which the TGI was > 100 µM.

`CCCCCCCCC(=O)OCC(CS[As](C)C)OC(=O)CCCCCCCC` (stereo not drawn): the GI50 was 11.5 µM and the TGI amounted to 35.1 µM. With `COc1cc(-c2c(C#N)c(N)nc(N3CCOCC3)c2C#N)cc(OC)c1OC`, the GI50 is > 100 µM and the TGI is > 100 µM. Regarding `COc1ccc(Nc2cc(C)nc(NCCCNc3ccnc4cc(Cl)ccc34)n2)cc1`, the GI50 was 1.95 µM and the TGI came out at 5.26 µM.

For `FC(F)(Sc1ncc[nH]1)c1nc2ccccc2o1`, the TGI was > 100 µM.

The values above are taken from PubChem BioAssay (NCI).
